# The supplement of paper PMC4604168 (melanoma cell lines)
# The other results are listed elsewhere or left out. Repeats are few or missing, and single values can be far off.
# Legend:
# Test in all cases: cell count relative to DMSO control; melanoma cells; higher = more viable cells
# Conditions in all cases: library dose: low library concentration; 72 h
# MZ2-MEL = test system: MZ2-MEL
# MeWo = test system: MeWo
# RPMI7951 = test system: RPMI7951
# RVH-421 = test system: RVH-421
# SkMel28 = test system: SkMel28
# SkMel2 = test system: SkMel2
# SkMel30 = test system: SkMel30
# SkMel5 = test system: SkMel5
# UACC257 = test system: UACC257
# UACC62 = test system: UACC62
# WM115 = test system: WM115
# WM1716 = test system: WM1716
# WM1745 = test system: WM1745
# WM3526 = test system: WM3526
# WM3619 = test system: WM3619
# WM451Lu = test system: WM451Lu
# 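Note: cell number obtained by counting DAPI-stained nuclei in high-throughput microscope images with image analysis software, screen run in 1,536-well plates.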
SMILES,cell count (MZ2-MEL),cell count (MeWo),cell count (RPMI7951),cell count (RVH-421),cell count (SkMel28),cell count (SkMel2),cell count (SkMel30),cell count (SkMel5),cell count (UACC257),cell count (UACC62),cell count (WM115),cell count (WM1716),cell count (WM1745),cell count (WM3526),cell count (WM3619),cell count (WM451Lu)
"CC(C)(C)c1cnc(CSc2cnc(NC(=O)C3CCNCC3)s2)o1 + NCC(=O)Nc1ccc(-n2nc(C(F)(F)F)cc2-c2ccc3c(ccc4ccccc43)c2)cc1 [OSU03012] (first compound 0.01 µM, partner dose 1 µM)",105%,56.5%,99.5%,121%,81.6%,85.8%,64%,82%,104%,90.5%,94.1%,102%,84.8%,65.9%,89.3%,77.1%
"NC(=O)c1ccc(N(C(N)=O)c2c(F)cccc2F)nc1-c1ccc(F)cc1F + COc1cc(N2CCC(N3CCN(C)CC3)CC2)ccc1Nc1ncc(Cl)c(Nc2ccccc2S(=O)(=O)C(C)C)n1 [NVP-TAE684] (first compound 0.4 µM, partner dose 0.08 µM)",99.9%,92%,88.8%,97.9%,84.6%,87.5%,96.3%,83.6%,68%,92.4%,89.7%,102%,84.6%,91.5%,109%,106%
"CCCCCCCCc1ccc(CCC(N)(CO)CO)cc1 [fingolimod] + N#Cc1c(O)c2c(-c3ccc(-c4ccccc4O)cc3)csc2[nH]c1=O [A769662] (first compound 2 µM, partner dose 2 µM)",92.9%,94.2%,70.4%,97.2%,91.3%,95.9%,96.6%,106%,104%,86.1%,89.2%,65.2%,64.7%,84%,64.8%,95.9%
"CCCCCCCCc1ccc(CCC(N)(CO)CO)cc1 [fingolimod] + COc1cc2ncnc(Nc3ccc(Oc4ccccc4)cc3)c2cc1OC [SrcI1] (first compound 2 µM, partner dose 2 µM)",94.2%,89.4%,78.8%,98.1%,74%,95.1%,99.5%,95.4%,107%,82.7%,94.7%,91.8%,62.9%,87.1%,89%,104%
"NC(=O)c1ccc(N(C(N)=O)c2c(F)cccc2F)nc1-c1ccc(F)cc1F + COc1cc2ncnc(Nc3ccc(Oc4ccccc4)cc3)c2cc1OC [SrcI1] (first compound 0.4 µM, partner dose 2 µM)",92.2%,103%,97.9%,90.4%,68.1%,114%,113%,98.8%,95.6%,79.9%,91.4%,126%,95%,108%,118%,96%
"NC(=O)c1ccc(N(C(N)=O)c2c(F)cccc2F)nc1-c1ccc(F)cc1F + O=c1cc(-c2cccc3c2Sc2ccccc2S3)oc(N2CCOCC2)c1 [KU55933] (first compound 0.4 µM, partner dose 1 µM)",100%,91.9%,94.4%,94.6%,103%,103%,92.7%,111%,105%,93.7%,87.8%,109%,113%,76.5%,104%,99.4%
"NC(=O)c1ccc(N(C(N)=O)c2c(F)cccc2F)nc1-c1ccc(F)cc1F + O=C1NC(=O)/C(=C/c2ccc(-c3ccc(F)cc3O)o2)S1 [AS252424] (first compound 0.4 µM, partner dose 1 µM)",101%,95.6%,96.9%,79.1%,88.2%,104%,110%,92.9%,113%,99.8%,99%,99.9%,89.4%,107%,108%,108%
"CCCCCCCCc1ccc(CCC(N)(CO)CO)cc1 [fingolimod] + NCC(=O)Nc1ccc(-n2nc(C(F)(F)F)cc2-c2ccc3c(ccc4ccccc43)c2)cc1 [OSU03012] (first compound 2 µM, partner dose 1 µM)",83%,49.4%,86.9%,99.9%,72%,56.4%,32.9%,76.6%,81.5%,72.5%,72.8%,71.5%,69.7%,16.9%,99%,60.9%
"CCCCCCCCc1ccc(CCC(N)(CO)CO)cc1 [fingolimod] + O=S(=O)(c1ccccc1)N(CC(F)(F)F)c1ccc(C(O)(C(F)(F)F)C(F)(F)F)cc1 [T0901317] (first compound 2 µM, partner dose 1.4 µM)",94.7%,96.3%,91%,93.3%,88%,87.1%,113%,70%,84.7%,62%,91.8%,72.5%,60.5%,79.7%,68.2%,86.2%
"CCCCCCCCc1ccc(CCC(N)(CO)CO)cc1 [fingolimod] + CC(C)CCN1c2nc(Nc3cc(F)c(O)c(F)c3)ncc2N(C)C(=O)C1C [BID1870] (first compound 2 µM, partner dose 0.2 µM)",95.2%,89.7%,99.9%,106%,72%,93.2%,93.8%,95.2%,81.8%,80%,81.6%,61.5%,76.4%,84.1%,84.7%,93.5%
